Test results published in the supplement of paper PMC4604168 (melanoma cell lines).
Some of the results follow. Most values come without repeats; read them as rough.

Columns and labels:
Assay in all cases: cell count relative to DMSO control; melanoma cells; higher = more viable cells
Settings in all cases: library dose: low library concentration; 72 h
[1] = system: MeWo
[2] = system: RPMI7951
[3] = system: RVH-421
[4] = system: SkMel28
[5] = system: SkMel30
[6] = system: SkMel5
[7] = system: UACC257
[8] = system: UACC62
[9] = system: MZ2-MEL
[10] = system: SkMel2
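Further: cell number obtained by counting DAPI-stained nuclei in high-throughput microscope images with image analysis software, screen run in 1,536-well plates.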

Which cell count [1] does the source give for `C=C(c1ccc(C(=O)O)cc1)c1cc2c(cc1C)C(C)(C)CCC2(C)C` [Bexarotene] + C[C@@H]1CCN(C(=O)CC#N)C[C@@H]1N(C)c1ncnc2[nH]ccc12 [CP690550] (first compound 2 µM, partner dose 1 µM) here?
Its cell count is 88.4%.

And the cell count [2]?
The cell count was 67.2%.

And the cell count [3]?
The cell count was 113%.

And the cell count [4]?
The cell count was 75.1%.

And the cell count [5]?
The cell count was 97.8%.

And the cell count [6]?
The cell count was 71%.

What about the cell count [7] of the same compound?
Its cell count is 101%.

What about the cell count [8] of the same compound?
Its cell count is 93.1%.

Which results are given for `CN(c1ncccc1CNc1nc(Nc2ccc3c(c2)CC(=O)N3)ncc1C(F)(F)F)S(C)(=O)=O` + NC1(c2ccc(-c3nc4ccn5c(=O)[nH]nc5c4cc3-c3ccccc3)cc2)CCC1 [MK2206] (first compound 0.08 µM, partner dose 0.4 µM)?
cell count [9]: 77.1%; cell count [1]: 79.7%; cell count [2]: 65.9%; cell count [3]: 86.6%; cell count [4]: 75%; cell count [10]: 74.4%; cell count [5]: 74.5%; cell count [8]: 70.5%

For `CN(c1ncccc1CNc1nc(Nc2ccc3c(c2)CC(=O)N3)ncc1C(F)(F)F)S(C)(=O)=O` + Cc1nc(Nc2ncc(C(=O)Nc3c(C)cccc3Cl)s2)cc(N2CCN(CCO)CC2)n1 [dasatanib] (first compound 0.08 µM, partner dose 0.004 µM), which cell count [9] is on record?
Its cell count is 61.5%.

And the cell count [1]?
The cell count was 87.2%.

What about the cell count [2] of the same compound?
The cell count was 62.1%.

And the cell count [3]?
Its cell count is 90.4%.

And the cell count [4]?
The cell count was 67.8%.

What about the cell count [5] of the same compound?
Its cell count is 106%.

What about the cell count [8] of the same compound?
The cell count was 63.2%.

How did the cell count [1] turn out when `CN(c1ncccc1CNc1nc(Nc2ccc3c(c2)CC(=O)N3)ncc1C(F)(F)F)S(C)(=O)=O` + COCC[n+]1c2c(n(Cc3cnccn3)c1C)C(=O)c1ccccc1C2=O [YM155] (first compound 0.08 µM, partner dose 0.0004 µM) was run?
Its cell count is 110%.

What about the cell count [2] of the same compound?
The cell count was 81%.

And the cell count [3]?
Its cell count is 93.1%.

And the cell count [4]?
Its cell count is 75.4%.

What about the cell count [5] of the same compound?
Its cell count is 77.5%.

What about the cell count [8] of the same compound?
The cell count was 76.1%.

For `NC1(c2ccc(-c3nc4ccn5c(=O)[nH]nc5c4cc3-c3ccccc3)cc2)CCC1` + CN1CCN(c2ccc3nc(-c4c(N)c5c(F)cccc5[nH]c4=O)[nH]c3c2)CC1 [Dovitinib] (first compound 0.4 µM, partner dose 0.1 µM), which cell count [9] is on record?
Its cell count is 87.1%.

And the cell count [1]?
Its cell count is 79.9%.

And the cell count [2]?
Its cell count is 105%.

And the cell count [3]?
The cell count was 82.8%.

And the cell count [4]?
The cell count was 54.9%.

What about the cell count [10] of the same compound?
The cell count was 79.4%.

And the cell count [5]?
Its cell count is 68.8%.

What about the cell count [8] of the same compound?
Its cell count is 69.5%.

`CS(=O)(=O)c1ccc(C(=O)Nc2ccc(Cl)c(-c3ccccn3)c2)c(Cl)c1` [vismodegib] + CO[C@H]1C[C@@H]2CC[C@@H](C)[C@@](O)(O2)C(=O)C(=O)N2CCCC[C@H]2C(=O)O[C@H]([C@H](C)C[C@@H]2CC[C@@H](OCCO)[C@H](OC)C2)CC(=O)[C@H](C)/C=C(\C)[C@@H](O)[C@@H](OC)C(=O)[C@H](C)C[C@H](C)/C=C/C=C/C=C/1C [everolimus] (first compound 1 µM, partner dose 0.02 µM) was tested. Which cell count [9] did it give?
The cell count was 78.6%.

And the cell count [1]?
Its cell count is 73.6%.

And the cell count [2]?
Its cell count is 84.4%.

What about the cell count [3] of the same compound?
The cell count was 86.5%.

What about the cell count [4] of the same compound?
The cell count was 66.5%.

What about the cell count [5] of the same compound?
Its cell count is 78.7%.

And the cell count [8]?
The cell count was 77.7%.

Which results are given for `CS(=O)(=O)c1ccc(C(=O)Nc2ccc(Cl)c(-c3ccccn3)c2)c(Cl)c1` [vismodegib] + Cc1nc(Nc2ncc(C(=O)Nc3c(C)cccc3Cl)s2)cc(N2CCN(CCO)CC2)n1 [dasatanib] (first compound 1 µM, partner dose 0.004 µM)?
cell count [9]: 74.8%; cell count [1]: 80.7%; cell count [2]: 70.8%; cell count [3]: 82.5%; cell count [4]: 86.9%; cell count [10]: 95.2%; cell count [5]: 88.8%; cell count [8]: 96%

How did the cell count [9] turn out when `CS(=O)(=O)c1ccc(C(=O)Nc2ccc(Cl)c(-c3ccccn3)c2)c(Cl)c1` [vismodegib] + CC(=O)c1c(C)c2cnc(Nc3ccc(N4CCNCC4)cn3)nc2n(C2CCCC2)c1=O [palbociclib] (first compound 1 µM, partner dose 0.04 µM) was run?
Its cell count is 90.4%.

What about the cell count [1] of the same compound?
The cell count was 90%.

What about the cell count [2] of the same compound?
Its cell count is 91.5%.

And the cell count [3]?
Its cell count is 106%.

And the cell count [4]?
The cell count was 110%.

What about the cell count [10] of the same compound?
Its cell count is 82.1%.

And the cell count [5]?
Its cell count is 86.8%.

And the cell count [8]?
Its cell count is 80.6%.

`CCCS(=O)(=O)Nc1ccc(F)c(C(=O)c2c[nH]c3ncc(Cl)cc23)c1F` + NC(=O)Nc1cc(-c2cccc(F)c2)sc1C(=O)N[C@H]1CCCNC1 [AZD7762] (first compound 0.08 µM, partner dose 0.02 µM) was tested. Which cell count [1] did it give?
Its cell count is 115%.

And the cell count [2]?
Its cell count is 91.4%.

What about the cell count [3] of the same compound?
The cell count was 103%.

What about the cell count [4] of the same compound?
The cell count was 81.9%.

And the cell count [5]?
The cell count was 132%.

What about the cell count [6] of the same compound?
The cell count was 96%.

And the cell count [7]?
Its cell count is 96.1%.

And the cell count [8]?
Its cell count is 68.2%.

Which cell count [9] does the source give for `CN(c1ncccc1CNc1nc(Nc2ccc3c(c2)CC(=O)N3)ncc1C(F)(F)F)S(C)(=O)=O` + CNC(=O)c1cc(Oc2ccc(NC(=O)Nc3ccc(Cl)c(C(F)(F)F)c3)cc2)ccn1 [sorafenib] (first compound 0.08 µM, partner dose 0.4 µM) here?
The cell count was 77.7%.

And the cell count [1]?
The cell count was 100%.

And the cell count [2]?
Its cell count is 52.5%.

And the cell count [3]?
The cell count was 94.9%.

What about the cell count [4] of the same compound?
The cell count was 76.2%.

What about the cell count [10] of the same compound?
The cell count was 88.9%.

What about the cell count [5] of the same compound?
The cell count was 117%.

And the cell count [8]?
The cell count was 73.6%.

What does the source list for `C=C(c1ccc(C(=O)O)cc1)c1cc2c(cc1C)C(C)(C)CCC2(C)C` [Bexarotene] + CCCS(=O)(=O)Nc1ccc(F)c(C(=O)c2c[nH]c3ncc(Cl)cc23)c1F [PLX4720] (first compound 2 µM, partner dose 0.08 µM)?
cell count [9]: 86.3%; cell count [1]: 73%; cell count [2]: 82.4%; cell count [3]: 83.2%; cell count [4]: 59.3%; cell count [10]: 103%; cell count [5]: 111%; cell count [8]: 47.2%

`NC1(c2ccc(-c3nc4ccn5c(=O)[nH]nc5c4cc3-c3ccccc3)cc2)CCC1` + Cn1c(Nc2ccc(C(F)(F)F)cc2)nc2cc(Oc3ccnc(-c4ncc(C(F)(F)F)[nH]4)c3)ccc21 [CHIR265] (first compound 0.4 µM, partner dose 0.08 µM) was tested. Which cell count [9] did it give?
Its cell count is 79%.

What about the cell count [1] of the same compound?
Its cell count is 59%.

And the cell count [2]?
Its cell count is 61.5%.

What about the cell count [3] of the same compound?
The cell count was 62.6%.

What about the cell count [4] of the same compound?
The cell count was 60.2%.

And the cell count [10]?
Its cell count is 72.8%.

What about the cell count [5] of the same compound?
Its cell count is 88.6%.

And the cell count [8]?
Its cell count is 42.9%.
